Reference: PubChem BioAssay AID1461 (National Center for Advancing Translational Sciences (NCATS), 2008)
The campaign covered roughly 220,000 compounds. About 2,300 (1%) were called active. This list was built around the results that the source calls inconclusive (neither active nor inactive); the mix of calls is not that of the screen. The call rests on the fitted dose curve; in most records, active means well fitted inhibition curve with a large enough effect; inconclusive means small, poorly fitted or top-dose-only effect, or effect the other way; inactive means no such curve, though single readings can be large or run the other way. Where the call is inconclusive, the potency comes from a doubtful curve fit.
Further: nearly all actives have a fitted effect of over 50% in size.
On the % scale 0 is the no-effect control and ±100 the full control effect; potency means the concentration at half of the fitted maximal effect; tags describe the fitted curve by direction and shape.

The molecules below were run against Neuropeptide S receptor (Homo sapiens) (UniProt Q6W5P4) (assay: qHTS Assay for Antagonists of the Neuropeptide S Receptor: cAMP Signal Transduction). Conditions: CHO-NPSR cells, cAMP TR-FRET, antagonist mode; activity change, negative = inhibition: at 38.3 µM (top of the series) unless noted.
UniProt Q6W5P4, sequence (Q6W5P4 whole entry, looked up): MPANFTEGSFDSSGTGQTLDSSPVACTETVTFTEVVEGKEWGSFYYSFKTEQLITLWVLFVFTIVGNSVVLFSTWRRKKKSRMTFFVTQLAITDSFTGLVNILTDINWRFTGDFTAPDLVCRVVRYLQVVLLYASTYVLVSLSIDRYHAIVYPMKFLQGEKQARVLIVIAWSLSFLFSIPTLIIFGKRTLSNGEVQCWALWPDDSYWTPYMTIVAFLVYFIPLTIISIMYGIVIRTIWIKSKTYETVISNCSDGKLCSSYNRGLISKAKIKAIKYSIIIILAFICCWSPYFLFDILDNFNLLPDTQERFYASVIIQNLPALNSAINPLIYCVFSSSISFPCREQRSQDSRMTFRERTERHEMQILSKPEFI
O=c1c(Cl)c(N2CCN(S(=O)(=O)c3ccc(F)cc3)CC2)cnn1-c1cccc(Cl)c1 was tested, and the Potency was inconclusive: 15.8 µM [inhibitor, partial curve].
With COc1ccc(C2c3c(ncn(CCCN4CCOCC4)c3=N)Oc3ccc4ccccc4c32)cc1OC (stereo unspecified) the Potency was active: 10 µM.
In the case of CC(C)COC(=O)c1nnsc1NC(=O)Nc1ccccc1, the Potency is reported as “inactive”.
In the case of Cc1cc(-c2nnc3sc(-c4ccc(Cl)cc4Cl)nn23)n[nH]1, the Potency is reported as inconclusive: 12.6 µM [inhibitor, partial curve].
With CCOc1ccc(/C=N/NC(=S)NC2CC3CC2C2C=CCC32)cc1 (stereo unspecified) the Potency was “inactive”.
In the case of O=C(NCc1ccccc1Cl)C1CCN(C(=O)c2sccc2-n2cccc2)CC1, the Potency is reported as “inactive”.
With O=S(=O)(NCCOCC(F)(F)F)c1ccc2oc3ccccc3c2c1 the Potency was “inactive”.
For COc1ccc2[nH]c3nc(SCc4nnc(-c5ccc(C)cc5)o4)nnc3c2c1, the Potency was inconclusive: 3.16 µM [inhibitor, partial curve].
For CCCS(=O)(=O)c1nnnn1-c1cccc(OC)c1, the Potency was active: 10 µM.
CCOC(=O)c1[nH]c(C)c(C(=O)c2cc(F)ccc2F)c1C was tested, and the Potency was inconclusive: 12.6 µM [activator, single point].
CC(NS(=O)(=O)c1ccccc1)C(c1cccs1)N1CCN(c2ccccc2)CC1 (stereo unspecified) was tested, and the Potency was inconclusive: 31.6 µM [inhibitor, single point].
O=C(Nc1nccs1)C1CCCN1S(=O)(=O)c1ccc(F)cc1 (stereo unspecified) was tested, and the Potency was “inactive”.
CC1CCN(C(=O)COC(=O)c2cc(Cl)cc(Cl)c2N)CC1 was tested, and the Potency was “inactive”.
For COc1ccc(-n2c(N)c(C(=O)NCC3CCCO3)c3nc4ccccc4nc32)c(OC)c1 (stereo unspecified), the Potency was inconclusive: 31.6 µM [inhibitor, partial curve].
CSc1cccc(NC(=S)N(CCCN2CCCC(C)C2)Cc2cccs2)c1 (stereo unspecified) was tested, and the Potency was inconclusive: 12.6 µM [inhibitor, single point].
For COc1cc(-c2nc(CN(C)Cc3nnc(C)o3)c(C)o2)ccc1F, the Potency was “inactive”.
In the case of Cc1onc(-c2ccccc2)c1C(=O)N1CCCSC1=Nc1ccccc1, the Potency is reported as inconclusive: 1 µM [inhibitor, full curve, poor fit].
Cn1c(=O)[nH]c(=O)c2c1nc(CN1CCN(c3cccc(Cl)c3)CC1)n2CCCc1ccccc1 was tested, and the Potency was inconclusive: 12.6 µM [inhibitor, single point].
In the case of Cn1c2c(c(=O)n(C)c1=O)[C@@H]1c3c(ccc4ccccc34)OC[C@@H]1CO2, the Potency is reported as inconclusive: 15.8 µM [activator, partial curve].
With COc1ccc(C(=O)N/N=C/c2ccc(N3CCOCC3)o2)cc1OC the Potency was “inactive”.
For Cc1nc2ccc(C(=O)OCc3ccccc3Br)cc2nc1C, the Potency was “inactive”.
In the case of CCOC(=O)N1CCN(CC(=O)Nc2sc(CC)cc2C(=O)c2ccc(OC)cc2)CC1, the Potency is reported as inconclusive: 10 µM [activator, partial curve].
In the case of COc1cc(C(=O)OCC(=O)c2cc(C)n(C)c2C)cc(NC(=O)c2ccco2)c1OC, the Potency is reported as “inactive”.
With CCCCN1C(=O)C(=Nc2cccc3cnccc23)c2ccccc21 the Potency was “inactive”.
In the case of CCOc1ccc2nc(SCC(=O)N3CCCCCC3)c(C#N)cc2c1, the Potency is reported as inconclusive: 5.01 µM [inhibitor, partial curve].
C/C(CC(=O)Nc1ccc2c(c1)OCO2)=N\NC(=O)C(c1ccccc1)c1ccccc1 was tested, and the Potency was “inactive”.
With CCOc1ccccc1N1CCN(S(=O)(=O)c2ccc(Cl)s2)CC1 the Potency was inconclusive: 12.6 µM [inhibitor, single point].
With NC(=O)c1ccc[n+](Cc2ccccc2)c1 the Potency was inconclusive: 12.6 µM [inhibitor, single point].
For COc1ccc(CSc2nnc(C)n2N)cc1[N+](=O)[O-], the Potency was “inactive”.
For Cc1ccc(-c2nn(-c3cc(Cl)ccc3[N+](=O)[O-])c(=O)c3ccccc23)cc1, the Potency was inconclusive: 10 µM [inhibitor, partial curve, poor fit].
For COC(=O)C1=C(C)N(c2cccc(OC)c2)C(=O)/C1=C\c1ccco1, the Potency was “inactive”.
With COc1cccc(-c2nn(-c3ccccc3)cc2CN(C)Cc2c(C)nc3ccccn23)c1 the Potency was inconclusive: 12.6 µM [activator, single point].
Cc1ccc(N2C(=O)C3C(C2=O)C2C=CC3C23CC3)c([N+](=O)[O-])c1 (stereo unspecified) was tested, and the Potency was “inactive”.
COc1ccc(Br)cc1/C=C/C(=O)c1ccc(NC(C)=O)cc1 was tested, and the Potency was inconclusive: 12.6 µM [inhibitor, single point].
For O=C(Nc1cnn(Cc2ccc(F)cc2)c1)c1cnccn1, the Potency was “inactive”.
In the case of O=C(Nc1ccccc1)C1CCCN(S(=O)(=O)c2ccc(-n3cnnn3)cc2)C1 (stereo unspecified), the Potency is reported as inconclusive: 0.0251 µM [inhibitor, full curve, poor fit].
O=C(Nc1ccc(COc2ccccc2)cc1)Oc1ccccc1N1CCOCC1 was tested, and the Potency was “inactive”.
In the case of CCN(CC)C(=O)CSc1nnc(-c2cccs2)n1Cc1ccco1, the Potency is reported as inconclusive: 10 µM [inhibitor, single point].
In the case of Cc1ccc(NC(=O)C(=O)c2c(-c3ccccc3)cc3ccccn23)cc1S(=O)(=O)N1CCOCC1, the activity change, negative = inhibition is reported as inconclusive: -33.4% [inhibitor] [at 46.1 µM].
With CCOC(=O)c1cnc(-n2cc(C)cn2)nc1Nc1ccccc1OCC the Potency was inconclusive: 12.6 µM [inhibitor, partial curve].
For CCn1c(C)c(C(C)=O)c(N2CCN(C(c3ccccc3)c3ccccc3)CC2)nc1=S, the Potency was “inactive”.
With Cc1[nH]c2ccc(-c3nnc(SCC(=O)N4CCCc5ccccc54)o3)cc2c1C the Potency was inconclusive: 2.51 µM [inhibitor, full curve, poor fit].
In the case of CCOc1ccc(C(=O)Nc2cc(C)on2)cc1, the Potency is reported as “inactive”.
Cc1ccc(-n2nc(-c3ccco3)cc2C(=O)NCc2cccnc2)cc1 was tested, and the Potency was inconclusive: 20 µM [inhibitor, partial curve, poor fit].
With CC(C)(C)c1cccc(P(=O)(c2ccccc2)c2ccccc2)c1O the Potency was inconclusive: 25.1 µM [activator, single point].
With O=C(CCl)Nc1cc(S(=O)(=O)N2CCCCCC2)ccc1Cl the Potency was “inactive”.
For COCCC(=O)Nc1ccc2c(c1)CN(C(=O)CSC)CC2, the Potency was inconclusive: 12.6 µM [activator, single point].
In the case of C=C(C)COc1ccc(-c2n[nH]c(C)c2-c2ccccc2)c(O)c1, the Potency is reported as inconclusive: 12.6 µM [inhibitor, single point].
CCc1ccc(NS(=O)(=O)c2ccc(OC)c(C)c2)cc1 was tested, and the Potency was inconclusive: 20 µM [inhibitor, single point].
For COc1ccc(Cn2c(SCc3ccc(C)cc3)nc3cc(OC)c(OC)cc3c2=N)cc1Cl, the Potency was inconclusive: 12.6 µM [inhibitor, single point].
For CCOC(=O)C1=C(C)NC(=O)N(C(C)=O)C1c1ccc(Cl)cc1 (stereo unspecified), the Potency was inconclusive: 12.6 µM [inhibitor, single point].
For COc1cc(OC)c2c(OC)cccc2n1, the Potency was “inactive”.
In the case of COc1cccc(Oc2cn[nH]c2-c2ccc(OC)cc2O)c1, the Potency is reported as inconclusive: 12.6 µM [inhibitor, single point].
With O=C(O)c1ccccc1SC1CC(=O)N(c2cccc3ccccc23)C1=O (stereo unspecified) the Potency was “inactive”.
CCOc1cc(CNCCSc2nnnn2C)cc(Br)c1OCc1ccccc1F was tested, and the Potency was inconclusive: 20 µM [inhibitor, single point].
With C=CCn1c(Cc2c[nH]c3ccccc23)nnc1SCC(=O)NCc1ccccc1 the Potency was “inactive”.
For CCOC(=O)c1c(C)[nH]c(C)c1C(=O)CSc1nnc(-c2ccco2)n1Cc1ccccc1, the Potency was inconclusive: 0.004 µM [inhibitor, full curve, poor fit].
COc1cc(C(=O)N2CCN(C(=O)c3ccco3)CC2)c([N+](=O)[O-])cc1OC was tested, and the Potency was “inactive”.
With CCOC(=O)C1=C(C)N(C)C(C)=C(C(=O)OCC)C1c1ccc(Cl)cc1 the Potency was inconclusive: 12.6 µM [inhibitor, single point].
With COc1ccc(CCNC(=O)/C(C#N)=C2\N=C(NC(=O)c3cccs3)c3ccccc32)cc1 the Potency was inconclusive: 10 µM [inhibitor, single point].
For Cc1ccc(-c2csc3ncnc(Nc4ccc(N5CCOCC5)cc4)c23)cc1, the Potency was inconclusive: 12.6 µM [inhibitor, partial curve].
For Cc1ccc(S(=O)(=O)c2c(N)n(CC3CCOC3)c3nc4ccccc4nc23)cc1 (stereo unspecified), the Potency was inconclusive: 25.1 µM [inhibitor, single point].
Cc1ncsc1CCOC(=O)C1C2CC3CC(C2)CC1C3 (stereo unspecified) was tested, and the Potency was inconclusive: 10 µM [inhibitor, single point].
In the case of O=C(/C=C/c1ccc(Cl)cc1Cl)NC(=S)Nc1ccc(CN2CCOCC2)cc1, the Potency is reported as inconclusive: 12.6 µM [inhibitor, single point].
For Cc1ccc(-n2nc(C)c3c(-c4cccs4)c(C#N)c(N)nc32)cc1, the Potency was inconclusive: 10 µM [inhibitor, partial curve].
With COc1ccc(CNCCC(c2ccc(OC(C)C)cc2)C(C)C)cc1OC (stereo unspecified) the Potency was inconclusive: 12.6 µM [inhibitor, partial curve].
Cc1ccccc1Nc1nc(N)nc(COC(=O)CCS(=O)(=O)c2ccccc2)n1 was tested, and the Potency was inconclusive: 20 µM [inhibitor, partial curve, poor fit].
COC(=O)c1sccc1NC(=O)CSc1cccc(Cl)c1Cl was tested, and the Potency was inconclusive: 12.6 µM [inhibitor, partial curve].
In the case of CCn1c(O)c(/C=N/N=C/c2ccccc2)c2ccc(C3=NNC(=O)CC3)cc21, the Potency is reported as inconclusive: 10 µM [inhibitor, single point].
In the case of NC(=O)C1CCN(C(=O)CCSc2ccc(Cl)cc2)CC1, the Potency is reported as “inactive”.
With Cc1ccc(C(=O)Nc2cnc3sc(C)nn3c2=O)cc1 the Potency was inconclusive: 3.98 µM [inhibitor, single point].
